# From the supplement of paper PMC8728848
# This is one part of the list.
# B1: HPAIIITrx (Helix pomatia), Q1KM18 (protein)
# chain: MLFVTIISLGLLAIVHGQCALKTIAFSAAIDREQTFDANQVVIYDIVITNHGNAYDNSTGLFTAPVDGMYSFQLNLLTIKEKEGWLELVHNGQLKVSVYAKQDSTYDSSSNSVIIKMKEGDRVNVRAHKKSGLFGRDDELYNTFSGHFLSGL
# Experiments:
# Experiment in all cases: glycan array binding signal (z-score within array); higher = stronger binding
# Conditions in all cases: glycan notation: IUPAC condensed, linker removed
# [1] = target: Neu5Ac(a2-6)Gal(b1-4)GlcNAc(b1-2)Man(a1-6)Man(b1-4)GlcNAc(b1-4)GlcNAc
# Outline: (§1)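 The binding signal is a Z-score computed within each array and averaged over linkers. Arrays of the same protein sequence at different concentrations or buffers were also averaged together. Data originate from 3228 arrays in the Consortium for Functional Glycomics database, kept only where the protein sequence was available.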
# [2] = target: Neu5Ac(a2-6)Gal(b1-4)GlcNAc(b1-2)Man(a1-6)[Gal(b1-4)GlcNAc(b1-2)Man(a1-3)]Man(b1-4)GlcNAc(b1-4)GlcNAc
# Outline: as §1
# [3] = target: Neu5Ac(a2-6)Gal(b1-4)GlcNAc(b1-2)Man(a1-6)[GlcNAc(b1-2)Man(a1-3)]Man(b1-4)GlcNAc(b1-4)GlcNAc
# Outline: as §1
# [4] = target: Neu5Ac(a2-6)Gal(b1-4)GlcNAc(b1-2)Man(a1-6)[Man(a1-3)]Man(b1-4)GlcNAc(b1-4)GlcNAc
# Outline: as §1
# [5] = target: Neu5Ac(a2-6)Gal(b1-4)GlcNAc(b1-2)[Neu5Ac(a2-6)Gal(b1-4)GlcNAc(b1-4)]Man(a1-3)[GlcNAc(b1-4)][Neu5Ac(a2-6)Gal(b1-4)GlcNAc(b1-2)[Neu5Ac(a2-6)Gal(b1-4)GlcNAc(b1-6)]Man(a1-6)]Man(b1-4)GlcNAc(b1-4)GlcNAc
# Outline: as §1
# [6] = target: Neu5Ac(a2-6)Gal(b1-4)GlcNAc(b1-2)[Neu5Ac(a2-6)Gal(b1-4)GlcNAc(b1-4)]Man(a1-3)[GlcNAc(b1-4)][Neu5Ac(a2-6)Gal(b1-4)GlcNAc(b1-4)Man(a1-6)]Man(b1-4)GlcNAc(b1-4)GlcNAc
# Outline: as §1
# [7] = target: Neu5Ac(a2-6)Gal(b1-4)GlcNAc(b1-2)[Neu5Ac(a2-6)Gal(b1-4)GlcNAc(b1-6)]Man(a1-6)[Neu5Ac(a2-6)Gal(b1-4)GlcNAc(b1-2)Man(a1-3)][GlcNAc(b1-4)]Man(b1-4)GlcNAc(b1-4)GlcNAc
# Outline: as §1
# [8] = target: Neu5Ac(a2-6)Gal(b1-4)GlcNAc(b1-3)Gal(b1-3)GlcNAc
# Outline: as §1
# [9] = target: Neu5Ac(a2-6)Gal(b1-4)GlcNAc(b1-3)Gal(b1-4)GlcNAc
# Outline: as §1
# [10] = target: Neu5Ac(a2-6)Gal(b1-4)GlcNAc(b1-3)Gal(b1-4)GlcNAc(b1-2)Man(a1-3)[Neu5Ac(a2-6)Gal(b1-4)GlcNAc(b1-3)Gal(b1-4)GlcNAc(b1-2)Man(a1-6)]GalNAc
# Outline: as §1
# [11] = target: Neu5Ac(a2-6)Gal(b1-4)GlcNAc(b1-3)Gal(b1-4)GlcNAc(b1-3)Gal(b1-4)GlcNAc
# Outline: as §1
# [12] = target: Neu5Ac(a2-6)Gal(b1-4)GlcNAc(b1-3)Gal(b1-4)GlcNAc(b1-3)Gal(b1-4)GlcNAc(b1-2)Man(a1-3)[Neu5Ac(a2-6)Gal(b1-4)GlcNAc(b1-3)Gal(b1-4)GlcNAc(b1-3)Gal(b1-4)GlcNAc(b1-2)Man(a1-6)]GalNAc
# Outline: as §1
# [13] = target: Neu5Ac(a2-6)Gal(b1-4)GlcNAc(b1-3)Gal(b1-4)GlcNAc(b1-3)GalNAc
# Outline: as §1
# [14] = target: Neu5Ac(a2-6)Gal(b1-4)GlcNAc(b1-3)Gal(b1-4)GlcNAc(b1-3)[Neu5Ac(a2-6)Gal(b1-4)GlcNAc(b1-3)Gal(b1-4)GlcNAc(b1-6)]GalNAc
# Outline: as §1
# [15] = target: Neu5Ac(a2-6)Gal(b1-4)GlcNAc(b1-3)Gal(b1-4)GlcNAc(b1-6)[Gal(b1-3)]GalNAc
# Outline: as §1
# [16] = target: Neu5Ac(a2-6)Gal(b1-4)GlcNAc(b1-3)Gal(b1-4)[Fuc(a1-3)]GlcNAc(b1-3)Gal(b1-4)[Fuc(a1-3)]GlcNAc
# Outline: as §1
# [17] = target: Neu5Ac(a2-6)Gal(b1-4)GlcNAc(b1-3)GalNAc
# Outline: as §1
# [18] = target: Neu5Ac(a2-6)Gal(b1-4)GlcNAc(b1-3)[Neu5Ac(a2-6)Gal(b1-4)GlcNAc(b1-6)]GalNAc
# Outline: as §1
# [19] = target: Neu5Ac(a2-6)Gal(b1-4)GlcNAc(b1-6)GalNAc
# Outline: as §1
# [20] = target: Neu5Ac(a2-6)Gal(b1-4)GlcNAc(b1-6)[Gal(b1-3)GlcNAc(b1-3)]Gal(b1-4)Glc
# Outline: as §1
# [21] = target: Neu5Ac(a2-6)Gal(b1-4)GlcNAc(b1-6)[Gal(b1-3)]GalNAc
# Outline: as §1
# [22] = target: Neu5Ac(a2-6)Gal(b1-4)GlcNAc6S
# Outline: as §1
# Neu5Ac(a2-6)GalNAc = target: Neu5Ac(a2-6)GalNAc
# Outline: as §1
# [23] = target: Neu5Ac(a2-6)GalNAc(b1-4)GlcNAc
# Outline: as §1
# [24] = target: Neu5Ac(a2-6)GalNAc(b1-4)GlcNAc6S
# Outline: as §1
# [25] = target: Neu5Ac(a2-6)GlcNAc(b1-4)GlcNAc
# Outline: as §1
# [26] = target: Neu5Ac(a2-6)GlcNAc(b1-4)GlcNAc(b1-4)GlcNAc
# Outline: as §1
# Neu5Ac(a2-8)Neu5Ac = target: Neu5Ac(a2-8)Neu5Ac
# Outline: as §1
# [27] = target: Neu5Ac(a2-8)Neu5Ac(a2-3)Gal(b1-3)GalNAc(b1-4)[Neu5Ac(a2-3)]Gal(b1-4)Glc
# Outline: as §1
# [28] = target: Neu5Ac(a2-8)Neu5Ac(a2-3)Gal(b1-3)GalNAc(b1-4)[Neu5Ac(a2-8)Neu5Ac(a2-3)]Gal(b1-4)Glc
# Outline: as §1
# [29] = target: Neu5Ac(a2-8)Neu5Ac(a2-3)Gal(b1-4)Glc
# Outline: as §1
# [30] = target: Neu5Ac(a2-8)Neu5Ac(a2-3)Gal(b1-4)GlcNAc
# Outline: as §1
# [31] = target: Neu5Ac(a2-8)Neu5Ac(a2-3)[Gal(b1-3)GalNAc(b1-4)]Gal(b1-4)Glc
# Outline: as §1
# [32] = target: Neu5Ac(a2-8)Neu5Ac(a2-3)[GalNAc(b1-4)]Gal(b1-4)Glc
# Outline: as §1
# [33] = target: Neu5Ac(a2-8)Neu5Ac(a2-8)Neu5Ac
# Outline: as §1
# [34] = target: Neu5Ac(a2-8)Neu5Ac(a2-8)Neu5Ac(a2-3)Gal(b1-4)Glc
# Outline: as §1
# [35] = target: Neu5Ac(a2-8)Neu5Ac(a2-8)Neu5Ac(a2-3)[Gal(b1-3)GalNAc(b1-4)]Gal(b1-4)Glc
# Outline: as §1
# [36] = target: Neu5Ac(a2-8)Neu5Ac(a2-8)Neu5Ac(a2-3)[GalNAc(b1-4)]Gal(b1-4)Glc
# Outline: as §1
# [37] = target: Neu5Ac(a2-8)Neu5Ac(a2-8)Neu5Ac(a2-8)Neu5Ac(a2-3)[GalNAc(b1-4)]Gal(b1-4)Glc
# Outline: as §1
# [38] = target: Neu5Ac(a2-8)Neu5Gc(a2-3)Gal(b1-4)GlcNAc
# Outline: as §1
# [39] = target: Neu5Ac(b2-6)Gal(b1-4)GlcNAc
# Outline: as §1
# Neu5Ac(b2-6)GalNAc = target: Neu5Ac(b2-6)GalNAc
# Outline: as §1
# [40] = target: Neu5Ac9Ac(a2-3)Gal(b1-3)GlcNAc
# Outline: as §1
# [41] = target: Neu5Ac9Ac(a2-3)Gal(b1-4)GlcNAc
# Outline: as §1
# [42] = target: Neu5Ac9Ac(a2-6)Gal(b1-4)GlcNAc
# Outline: as §1
# [43] = target: Neu5Gc(a2-3)Gal(b1-3)GlcNAc
# Outline: as §1
# [44] = target: Neu5Gc(a2-3)Gal(b1-3)[Fuc(a1-4)]GlcNAc
# Outline: as §1
# Neu5Gc(a2-3)Gal(b1-4)Glc = target: Neu5Gc(a2-3)Gal(b1-4)Glc
# Outline: as §1
# [45] = target: Neu5Gc(a2-3)Gal(b1-4)GlcNAc
# Outline: as §1
# [46] = target: Neu5Gc(a2-3)Gal(b1-4)GlcNAc(b1-3)Gal(b1-4)GlcNAc(b1-2)Man(a1-3)[Neu5Gc(a2-3)Gal(b1-4)GlcNAc(b1-3)Gal(b1-4)GlcNAc(b1-2)Man(a1-6)]Man(b1-4)GlcNAc(b1-4)GlcNAc
# Outline: as §1
# [47] = target: Neu5Gc(a2-3)Gal(b1-4)[Fuc(a1-3)]GlcNAc
# Outline: as §1
# [48] = target: Neu5Gc(a2-6)Gal(b1-4)GlcNAc
# Outline: as §1
# Neu5Gc(a2-6)GalNAc = target: Neu5Gc(a2-6)GalNAc
# Outline: as §1
# [49] = target: Neu5Gc(a2-8)Neu5Ac(a2-3)Gal(b1-4)GlcNAc
# Outline: as §1
# [50] = target: Neu5Gc(a2-8)Neu5Gc(a2-3)Gal(b1-4)GlcNAc
# Outline: as §1
# [51] = target: Neu5Gc(a2-8)Neu5Gc(a2-3)Gal(b1-4)GlcNAc(b1-3)Gal(b1-4)GlcNAc
# Outline: as §1
# [52] = target: Neu5Gc(a2-8)Neu5Gc(a2-6)Gal(b1-4)GlcNAc
# Outline: as §1
# [53] = target: Neu5Gc(b2-6)Gal(b1-4)GlcNAc
# Outline: as §1
binder,measurement,setting,value
B1,glycan array binding signal (z-score),[1],-0.31
same,glycan array binding signal (z-score),[2],0.642
same,glycan array binding signal (z-score),[3],-0.492
same,glycan array binding signal (z-score),[4],-0.31
same,glycan array binding signal (z-score),[5],-0.455
same,glycan array binding signal (z-score),[6],-0.345
same,glycan array binding signal (z-score),[7],-0.416
same,glycan array binding signal (z-score),[8],-0.351
same,glycan array binding signal (z-score),[9],-0.395
same,glycan array binding signal (z-score),[10],-0.254
same,glycan array binding signal (z-score),[11],-0.514
same,glycan array binding signal (z-score),[12],1.22
same,glycan array binding signal (z-score),[13],-0.346
same,glycan array binding signal (z-score),[14],0.816
same,glycan array binding signal (z-score),[15],-0.292
same,glycan array binding signal (z-score),[16],-0.392
same,glycan array binding signal (z-score),[17],0.163
same,glycan array binding signal (z-score),[18],-0.408
same,glycan array binding signal (z-score),[19],0.573
same,glycan array binding signal (z-score),[20],-0.39
same,glycan array binding signal (z-score),[21],-0.3
same,glycan array binding signal (z-score),[22],-0.262
same,glycan array binding signal (z-score),Neu5Ac(a2-6)GalNAc,-0.361
same,glycan array binding signal (z-score),[23],-0.4
same,glycan array binding signal (z-score),[24],-0.278
same,glycan array binding signal (z-score),[25],-0.447
same,glycan array binding signal (z-score),[26],-0.323
same,glycan array binding signal (z-score),Neu5Ac(a2-8)Neu5Ac,-0.078
same,glycan array binding signal (z-score),[27],-0.396
same,glycan array binding signal (z-score),[28],-0.38
same,glycan array binding signal (z-score),[29],-0.321
same,glycan array binding signal (z-score),[30],-0.454
same,glycan array binding signal (z-score),[31],-0.374
same,glycan array binding signal (z-score),[32],-0.378
same,glycan array binding signal (z-score),[33],-0.315
same,glycan array binding signal (z-score),[34],-0.401
same,glycan array binding signal (z-score),[35],-0.263
same,glycan array binding signal (z-score),[36],-0.1
same,glycan array binding signal (z-score),[37],-0.251
same,glycan array binding signal (z-score),[38],-0.37
same,glycan array binding signal (z-score),[39],-0.507
same,glycan array binding signal (z-score),Neu5Ac(b2-6)GalNAc,-0.371
same,glycan array binding signal (z-score),[40],0.224
same,glycan array binding signal (z-score),[41],-0.301
same,glycan array binding signal (z-score),[42],-0.157
same,glycan array binding signal (z-score),[43],-0.347
same,glycan array binding signal (z-score),[44],-0.296
same,glycan array binding signal (z-score),Neu5Gc(a2-3)Gal(b1-4)Glc,-0.237
same,glycan array binding signal (z-score),[45],-0.502
same,glycan array binding signal (z-score),[46],-0.297
same,glycan array binding signal (z-score),[47],-0.214
same,glycan array binding signal (z-score),[48],-0.386
same,glycan array binding signal (z-score),Neu5Gc(a2-6)GalNAc,-0.327
same,glycan array binding signal (z-score),[49],-0.425
same,glycan array binding signal (z-score),[50],-0.459
same,glycan array binding signal (z-score),[51],-0.466
same,glycan array binding signal (z-score),[52],-0.356
same,glycan array binding signal (z-score),[53],-0.262
